# Reference: the supplement of paper PMC11181314
# The other results are listed elsewhere or left out. Single values of this set are uncertain.
# Tested on: U2OS
# Assay: Cell Painting induction (percent of morphological features significantly changed vs DMSO); higher = stronger morphological change
# Details: 10 µM, 20 h
# Experimental: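 Cell Painting assay in U2OS cells: compounds at 10 µM for 20 h, six dyes, 579 robust CellProfiler features as Z-scores vs DMSO median (MAD). Induction is the % of significantly changed features (active if ≥5%); relative cell count is in % of DMSO. The primary run holds DCM compounds preselected for induction ≥10%; the confirmation repeat defines active compounds (370 of 549). Replicate agreement is low, attributed to precipitation.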
# [1] = run: primary screen (compounds selected for induction >=10%)
# 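Note: stains mark DNA, RNA and nucleoli, ER, actin, Golgi, plasma membrane and mitochondria, read by high-content imaging, with DMSO controls at matching solvent concentration.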
SMILES,Cell Painting induction (run: confirmation repeat),Cell Painting induction [1]
COC(=O)c1ccc(C(=O)OC)c(NC(=S)N2CCC(N3CCCCC3)CC2)c1,active: 8.3%,17.6%
CCOc1ccc(N2C(=O)C3=C(C(c4ccc(Cl)cc4)=NCCN3)C2c2cccnc2)cc1 (configuration not stated),active: 29.5%,26.1%
COc1ccc(OC)c(NC(=O)Cn2cc(C(=O)c3ccccc3)c(=O)c3cc(C)ccc32)c1,active: 5.4%,42.5%
CN(C1CCCCC1)C(CNS(=O)(=O)c1ccc(Cl)cc1)c1ccccc1 (configuration not stated),active: 26.3%,10.9%
O=S(=O)(c1ccc(-c2ccc(O)nn2)o1)N1CCN(c2cccc(Cl)c2)CC1,active: 49.4%,54.6%
Cc1cccc(N2CCN(C(=O)CCCn3c(=O)c4cccn4c4cccnc43)CC2)c1C,active: 26.3%,25.9%
Cc1ccc(NC(=O)Cn2cc(S(=O)(=O)c3ccccc3)c(=O)c3cc(F)ccc32)cc1,active: 47.3%,19.5%
COc1cc(OC)c(OC)cc1CN1CCC(N2CCN(c3ccccc3)CC2)CC1,active: 18.3%,24.7%
Cc1ccc(/C=C2/Sc3ccc(C(=O)NCCN4CCOCC4)cc3NC2=O)cc1,active: 15.4%,45.6%
Nc1nc(CN2CCN(C(c3ccccc3)c3ccccc3)CC2)nc(Nc2ccccc2)n1,active: 19.5%,18.8%
Cc1ccc(Oc2cc(C#N)c(C#N)cc2-n2nnc3ccccc32)cc1C,inactive: 0.3%,23.5%
Cc1cccc(CN2CCC(CNC(=O)Cn3ncc4c5ccccc5nc-4c3O)CC2)c1,inactive: 0.5%,49.9%
COC(=O)c1cc(S(=O)(=O)NCC2CCN(CCc3ccc(OC)cc3)CC2)cn1C,active: 16.8%,16.2%
O=C(CCCCn1c(=O)c2ccccc2n(Cc2ccc(Cl)cc2)c1=O)NCc1ccco1,active: 43.9%,59.6%
C=CCOC(=O)C1=C(C)N=C2SCCC(=O)N2C1/C=C/c1ccccc1OC (configuration not stated),active: 5.4%,22.3%
O=C(NCCCN1CCOCC1)c1cc(-c2ccc(Cl)c(Cl)c2)on1,active: 23.8%,23%

SMILES,Cell Painting induction (run: confirmation repeat),Cell Painting induction [1]
COc1ccc(O)c(/C=N/NC(=O)CCC(=O)Nc2cccc(C)c2)c1,active: 18.8%,15.9%
Cc1cc(-c2ccc(C)c(S(=O)(=O)NCC3CCN(Cc4cccc(F)c4)CC3)c2)on1,active: 47.5%,43.9%
COc1cc(/C=C2/SC(=S)N(Cc3ccccc3)C2=O)ccc1OS(C)(=O)=O,active: 40.6%,43.5%
COC(=O)CSC1=C(C#N)C(c2cccc(F)c2)CC(=O)N1 (configuration not stated),active: 22.3%,12.4%
COc1ccccc1N1CCN(C(=O)c2sc3ncn(CC(=O)N4CCC(C)CC4)c(=O)c3c2C)CC1,active: 25.6%,23%
Cc1noc(C)c1S(=O)(=O)N(CC(=O)NCc1ccccc1)c1ccc(C(C)C)cc1,active: 17.1%,20%
COc1cc(C2Nc3ccc4ncccc4c3C3=C2C(=O)CCC3)cc(OC)c1OC (configuration not stated),active: 9.3%,15%
CCc1ccc(-c2cc(C)no2)cc1S(=O)(=O)NCCN1CCC(C)CC1,active: 30.1%,30.7%
COc1ccccc1C(=O)Nc1ccc2c(c1)nc(CN1CCCCC1)n2C,active: 5.4%,11.7%
CCN(CC)CCCNC(=O)c1cc2nc(-c3ccccc3)cc(C(F)(F)F)n2n1,inactive: 0.2%,18.7%
CCOC(=O)c1[nH]c2c(c1-c1ccc(OC)cc1)C(=O)CC(c1ccc(OC)c(OC)c1)C2 (configuration not stated),active: 7.6%,13.1%
CCOC(=O)C1CCN(c2c(Nc3cc(C)cc(C)c3)c(=O)c2=O)CC1,active: 20.7%,33.5%
O=C(CNC(=S)N(CCCN1CCOCC1)Cc1cccs1)NC1CCCCC1,active: 9%,10.2%
Cc1nn(C(C)C(=O)NCCCN2CCCCC2C)c(=O)c2c1sc1ccccc12 (configuration not stated),active: 10.4%,18.5%
COc1ccccc1NC(=O)CSc1nc2ccccc2c(=O)n1CC1CCCO1 (configuration not stated),inactive: 2.1%,10.4%
